The values below are quoted from earlier work in article PMC11006913.

Some of the results follow.

The target in data set [1] is PROP1 R112Q (Homo sapiens) (UniProt O75360). The note with it: PBM; conditions not shown; double strand, one strand shown; scale: upbm affinity estimate (log intensity, higher = more binding, comparable within an allelic series).
Data set [2] deals with PROP1 R99Q (Homo sapiens) (UniProt O75360). As to conditions: PBM; conditions not shown; double strand, one strand shown; scale: upbm affinity estimate (log intensity, higher = more binding, comparable within an allelic series).

In the case of TAATTTAA [8-mer TAATTTAA], the binding signal in data set [1] was 12.6; in data set [2], 11.9.
As for AATTTCCA [8-mer AATTTCCA], the binding signal was 12 in data set [1] and 11.6 in data set [2].
Take AATCAATG [8-mer AATCAATG]: the figures for the binding signal in data set [1] and in data set [2] were 12.2 and 11.7, respectively.
As for CTGAGCCC [8-mer CTGAGCCC], the binding signal in data set [1] and in data set [2] was 11 throughout.
Consider ACGGGGGG [8-mer ACGGGGGG], for which the binding signal in data set [1] is 10.9; in data set [2] it was 11.
Turning to CTCCTTCC [8-mer CTCCTTCC], the binding signal in data set [1] is 10.8; in data set [2], 10.9.
Consider ACCCGCGT [8-mer ACCCGCGT], for which the binding signal in data set [1] and in data set [2] was 10.8 each time.
GCCCCAGC [8-mer GCCCCAGC]: the binding signal was 10.8 in data set [1] and 10.9 in data set [2].
On to GCTATAGC [8-mer GCTATAGC], for which the binding signal in data set [1] is 11.2; in data set [2], 11.1.
With AATTTAAT [8-mer AATTTAAT], the results for the binding signal in data set [1] and in data set [2] were 12.5 and 11.9, respectively.
Consider GACGTTGC [8-mer GACGTTGC], for which the binding signal is 11 in data set [1] and 11.1 in data set [2].
